Patent US8722849B2, “Polypeptides” (Novo Nordisk A/S, priority 2011, dated 2014)
At least one read-out could not be matched to a standard name with certainty. Starred links: 1 amine or outer side, 2 acyl side, 3 side chain; linkers in the order of their positions; H or OH if unused. Positions of bridges follow the written chain, without caps; N, C: chain ends. Residues, ends and D or L forms follow the SMILES beside them. *: point of attachment. C20 diacid = O=C(O)CCCCCCCCCCCCCCCCCCC(=O)*; γGlu = O=C(O)[C@H](CCC(=O)[*:2])N[*:1]

Assay: Assay (III) ThT fibrillation assay for physical stability
Type: physicochemical
Settings: ThT fibrillation assay
Outline: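 Freshly prepared formulations, pH-adjusted, with 1 μM ThT; four or eight replicates incubated at 37 °C under 960 rpm orbital shaking. Fluorescence (ex 444/em 485 nm) read every 20 min; […]. Peptide concentration measured by RP-HPLC before and after the run.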

SMILES	ThT pH 4.0 recovery (%)	ThT pH 4.0 recovery
CC[C@H](C)[C@H](NC(=O)[C@@H]1CCCN1C(=O)CNC(=O)[C@H](Cc1ccccc1)NC(=O)[C@H](CC(N)=O)NC(=O)[C@H](CC(N)=O)NC(=O)[C@H](CO)NC(=O)[C@H](CO)NC(=O)[C@H](Cc1c[nH]cn1)NC(=O)[C@H](Cc1c[nH]cn1)NC(=O)[C@H](CC(C)C)NC(=O)[C@H](Cc1ccccc1)NC(=O)[C@H](CCC(=O)O)NC(=O)[C@H](C)NC(=O)[C@H](CC(C)C)NC(=O)[C@H](CCCNC(=N)N)NC(=O)[C@H](CCC(N)=O)NC(=O)[C@@H](NC(=O)[C@H](C)NC(=O)[C@@H]1CSSC[C@H](NC(=O)[C@H](CCCCN)NC(=O)CC[C@H](NC(=O)CCCCCCCCCCCCCCCCCCC(=O)O)C(=O)O)C(=O)N[C@@H](CC(N)=O)C(=O)N[C@@H]([C@@H](C)O)C(=O)N[C@@H](C)C(=O)N[C@@H]([C@@H](C)O)C(=O)N1)[C@@H](C)O)C(=O)N[C@@H](CC(C)C)C(=O)N1CCC[C@H]1C(=O)N1CCC[C@H]1C(=O)N[C@H](C(=O)N[C@@H](CC(N)=O)C(=O)N[C@H](C(=O)NCC(=O)N[C@@H](CO)C(=O)N[C@@H](CC(N)=O)C(=O)N[C@H](C(=O)N[C@@H](Cc1ccc(O)cc1)C(N)=O)[C@@H](C)O)C(C)C)[C@@H](C)O [Example 27, N-alpha-[(S)-4-Carboxy-4-(19-carboxynonadecanoylamino)butyryl]-[Glu14,His17]-pramlintide] ({C20 diacid-γGlu}-KCNTATCATQRLAEFLHHSSNNFGPILPPTNVGSNTY-NH2; disulfide 2-7 (inferred))	26%	–
CC[C@H](C)[C@H](NC(=O)[C@@H]1CCCN1C(=O)CNC(=O)[C@H](Cc1ccccc1)NC(=O)[C@H](CC(N)=O)NC(=O)[C@H](CC(N)=O)NC(=O)[C@H](CO)NC(=O)[C@H](CO)NC(=O)[C@H](Cc1c[nH]cn1)NC(=O)[C@H](Cc1c[nH]cn1)NC(=O)[C@H](CC(C)C)NC(=O)[C@H](Cc1ccccc1)NC(=O)[C@H](CCC(=O)O)NC(=O)[C@H](C)NC(=O)[C@H](CC(C)C)NC(=O)[C@H](CCCNC(=N)N)NC(=O)[C@H](CCC(N)=O)NC(=O)[C@@H](NC(=O)[C@H](C)NC(=O)[C@@H]1CSSC[C@H](NC(=O)[C@H](Cc2c[nH]cn2)NC(=O)CC[C@H](NC(=O)CCCCCCCCCCCCCCCCCCC(=O)O)C(=O)O)C(=O)N[C@@H](CC(N)=O)C(=O)N[C@@H]([C@@H](C)O)C(=O)N[C@@H](C)C(=O)N[C@@H]([C@@H](C)O)C(=O)N1)[C@@H](C)O)C(=O)N[C@@H](CC(C)C)C(=O)N1CCC[C@H]1C(=O)N1CCC[C@H]1C(=O)N[C@H](C(=O)N[C@@H](CC(N)=O)C(=O)N[C@H](C(=O)NCC(=O)N[C@@H](CO)C(=O)N[C@@H](CC(N)=O)C(=O)N[C@H](C(=O)N1CCC[C@H]1C(N)=O)[C@@H](C)O)C(C)C)[C@@H](C)O [Example 84, N-alpha-[(S)-4-Carboxy-4-(19-carboxynonadecanoylamino)butyryl]-[His1,Glu14,His17,Pro37]-pramlintide] ({C20 diacid-γGlu}-HCNTATCATQRLAEFLHHSSNNFGPILPPTNVGSNTP-NH2; disulfide 2-7 (inferred); C-terminus assumed)	100%	100%
CC[C@H](C)[C@H](NC(=O)[C@@H]1CCCN1C(=O)CNC(=O)[C@H](Cc1ccccc1)NC(=O)[C@H](CC(N)=O)NC(=O)[C@H](CC(N)=O)NC(=O)[C@H](CO)NC(=O)[C@H](CO)NC(=O)[C@H](Cc1c[nH]cn1)NC(=O)[C@H](Cc1c[nH]cn1)NC(=O)[C@H](CC(C)C)NC(=O)[C@H](Cc1ccccc1)NC(=O)[C@H](CCC(=O)O)NC(=O)[C@H](C)NC(=O)[C@H](CC(C)C)NC(=O)[C@H](CCCNC(=N)N)NC(=O)[C@H](CCC(N)=O)NC(=O)[C@@H](NC(=O)[C@H](C)NC(=O)[C@@H]1CSSC[C@H](NC(=O)[C@H](Cc2c[nH]cn2)NC(=O)[C@H](Cc2c[nH]cn2)NC(=O)[C@H](Cc2c[nH]cn2)NC(=O)CC[C@H](NC(=O)CCCCCCCCCCCCCCCCCCC(=O)O)C(=O)O)C(=O)N[C@@H](CC(N)=O)C(=O)N[C@@H]([C@@H](C)O)C(=O)N[C@@H](C)C(=O)N[C@@H]([C@@H](C)O)C(=O)N1)[C@@H](C)O)C(=O)N[C@@H](CC(C)C)C(=O)N1CCC[C@H]1C(=O)N1CCC[C@H]1C(=O)N[C@H](C(=O)N[C@@H](CC(N)=O)C(=O)N[C@H](C(=O)NCC(=O)N[C@@H](CO)C(=O)N[C@@H](CC(N)=O)C(=O)N[C@H](C(=O)N[C@@H](Cc1ccc(O)cc1)C(N)=O)[C@@H](C)O)C(C)C)[C@@H](C)O [Example 11, N-alpha-[(S)-4-Carboxy-4-(19-carboxynonadecanoylamino)butyryl]-His-His-[His1,Glu14,His17]-pramlintide] ({C20 diacid-γGlu}-HHHCNTATCATQRLAEFLHHSSNNFGPILPPTNVGSNTY-NH2; disulfide 4-9 (inferred))	3%	–
CC[C@H](C)[C@H](NC(=O)[C@@H]1CCCN1C(=O)CNC(=O)[C@H](Cc1ccccc1)NC(=O)[C@H](CC(N)=O)NC(=O)[C@H](CC(N)=O)NC(=O)[C@H](CO)NC(=O)[C@H](CO)NC(=O)[C@H](CCCNC(=N)N)NC(=O)[C@H](Cc1c[nH]cn1)NC(=O)[C@H](CC(C)C)NC(=O)[C@H](Cc1ccccc1)NC(=O)[C@H](CCC(=O)O)NC(=O)[C@H](C)NC(=O)[C@H](CC(C)C)NC(=O)[C@H](CCCNC(=N)N)NC(=O)[C@H](CCC(N)=O)NC(=O)[C@@H](NC(=O)[C@H](C)NC(=O)[C@@H]1CSSC[C@H](NC(=O)[C@H](CCCCN)NC(=O)CC[C@H](NC(=O)CCCCCCCCCCCCCCCCCCC(=O)O)C(=O)O)C(=O)N[C@@H](CC(N)=O)C(=O)N[C@@H]([C@@H](C)O)C(=O)N[C@@H](C)C(=O)N[C@@H]([C@@H](C)O)C(=O)N1)[C@@H](C)O)C(=O)N[C@@H](CC(C)C)C(=O)N1CCC[C@H]1C(=O)N1CCC[C@H]1C(=O)N[C@H](C(=O)N[C@@H](CC(N)=O)C(=O)N[C@H](C(=O)NCC(=O)N[C@@H](CO)C(=O)N[C@@H](Cc1c[nH]cn1)C(=O)N[C@H](C(=O)N[C@@H](Cc1ccc(O)cc1)C(N)=O)[C@@H](C)O)C(C)C)[C@@H](C)O [Example 78, N-alpha-[(S)-4-Carboxy-4-(19-carboxynonadecanoylamino)butyryl]-[Glu14,His17,Arg18,His35]-pramlintide] ({C20 diacid-γGlu}-KCNTATCATQRLAEFLHRSSNNFGPILPPTNVGSHTY-NH2; disulfide 2-7 (inferred); C-terminus assumed)	100%	100%
